Data reported in PubChem BioAssay (NCATS).
Inconclusive means that the source gave no clear call. Such entries were picked first, then a sample of the others. For some assays here: Where the call is inconclusive, the potency comes from a doubtful curve fit. Active and inactive are the calls of the source. Calls follow the shape of the dose curve; as a rule, active = well fitted cell-killing curve with a large enough effect; inconclusive = small, poorly fitted or top-dose-only effect, or effect the other way; inactive = flat fitted curve, though single readings scatter.

Legend:
Test in all cases: Primary qHTS to identify gynecologic anti-cancer compounds using libraries of approved drugs and bioactive compounds (AID 1345084); also: nearly all actives have a fitted effect of over 55% in size
C33A = details: Gynecologic cancer cell panel viability, ATPlite luminescence, 48 h; series mostly up to 57.5 µM
Summary of the method: (§1)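 Cells, 1,000 per well, plated 16 h, then exposed 48 h at 37 C to compounds. Viability by ATPlite luminescence after 15 min at room temperature.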

CAOV3 = details: Gynecologic cancer cell panel viability, ATPlite luminescence, 48 h; series mostly up to 57.5 µM
Summary of the method: as §1

CASKI = details: Gynecologic cancer cell panel viability, ATPlite luminescence, 48 h; series mostly up to 57.5 µM
Summary of the method: as §1

Es-2 = details: Gynecologic cancer cell panel viability, ATPlite luminescence, 48 h; series mostly up to 57.5 µM
Summary of the method: as §1

Hek293T = details: Gynecologic cancer cell panel viability, ATPlite luminescence, 48 h, control line for the selectivity index; series mostly up to 57.5 µM
Summary of the method: as §1

JEG-3 = details: Gynecologic cancer cell panel viability, ATPlite luminescence, 48 h; series mostly up to 57.5 µM
Summary of the method: as §1

OV90 = details: Gynecologic cancer cell panel viability, ATPlite luminescence, 48 h; series mostly up to 57.5 µM
Summary of the method: as §1

HeLa = details: Gynecologic cancer cell panel viability, ATPlite luminescence, 48 h; series mostly up to 57.5 µM
Summary of the method: as §1
Potency is read from the fitted curve at half-maximal effect; tags tell the direction and shape of the fitted curve.

SMILES | Potency (C33A) | Potency (CAOV3) | Potency (CASKI) | Potency (Es-2) | Potency (Hek293T) | Potency (JEG-3) | Potency (OV90) | Potency (HeLa)
CO[C@@H]1[C@H](O)[C@@H](O[C@@H]2C[C@H]3CC[C@@H]4C(CC[C@]5(C)[C@@H](C6=CC(=O)OC6)CC[C@]45O)[C@@]3(C)[C@H](O)C2)O[C@H](C)[C@@H]1O[C@@H]1O[C@H](CO)[C@@H](O)[C@H](O)[C@H]1O (stereo not given in full) | active: 199 nM | inconclusive: 631 nM [cytotoxic, full curve, poor fit] | active: 1260 nM | active: 398 nM | active: 398 nM | inconclusive: 1000 nM [cytotoxic, single point] | active: 2240 nM | 
COC1CC(OC2CCC3(C=O)C(CCC4C3CCC3(C)C(C5=CC(=O)OC5)CCC43O)C2)OC(C)C1OC1OC(CO)C(O)C(O)C1O (stereo not given) | active: 158 nM | active: 631 nM | active: 1120 nM |  | active: 398 nM | inconclusive: 794 nM [cytotoxic, partial curve, poor fit] |  | active: 282 nM
Fc1cc(F)c2c(c1)C1C=CCC1C(c1cccnc1)N2 (stereo not given) | active: 22400 nM | inconclusive: 28200 nM [cytotoxic, single point] | inconclusive: 39800 nM [cytotoxic, single point] | inconclusive: 39800 nM [cytotoxic, single point] | inconclusive: 39800 nM [cytotoxic, single point] | inconclusive: 28200 nM [cytotoxic, single point] | inconclusive: 25100 nM [cytotoxic, partial curve, poor fit] | 
